Assay results reported in PubChem BioAssay AID686970 (National Center for Advancing Translational Sciences (NCATS), 2013).
Among all 360,000 compounds or so, about 6,000 (1.7%) were called active. Inconclusive results, whose numbers are uncertain, are shown with a selection of clear calls. Calls come from the whole dose curve; as a rule, active = well fitted cell-killing curve with a large enough effect; inconclusive = small, poorly fitted or top-dose-only effect, or effect the other way; inactive = flat fitted curve, though single readings scatter. Potencies of inconclusive entries are left out as doubtful fits.

Experiment: qHTS for induction of synthetic lethality in tumor cells producing 2HG: qHTS for the HT-1080-NT fibrosarcoma cell line;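 note: NT is the 2HG producing partner of a matched IDH1 knockdown line; nearly all actives have a fitted effect of over 55% in size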;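 for activity, negative = less viability: 0% = DMSO-treated cells and -100% = media-only wells without cells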
Settings: HT-1080-NT fibrosarcoma viability, CellTiter-Glo ATP luminescence, 48 h; activity, negative = less viability: at 46.1 µM (top of the series) unless noted
Procedure, shortened: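 HT-1080-NT; 750 cells/well; 5% FBS RPMI; 48 h compound, 37 degrees C; CellTiter-Glo luminescence; curve fitting and curve-class assignment.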
Potency is the fitted concentration of half-maximal effect; tags give direction and shape of the fitted curve.

SMILES	Potency	activity, negative = less viability
COc1cc(NC(=O)c2cc(-c3ccccc3Cl)on2)cc(OC)c1OC	inconclusive [cytotoxic, partial curve]	
COc1ccc(C)c2sc(N(CCCN(C)C)C(=O)CS(=O)(=O)c3ccc(F)cc3)nc12	active: 18.4 µM	
CCCCc1cc(=O)oc2cc(O)cc(O)c12	inactive	
COc1ccc(OC)c(NC(=O)c2cc3n(n2)C(C(F)(F)F)CC(c2ccc4c(c2)OCO4)N3)c1 (configuration not stated)	inconclusive [cytotoxic, single point]	
Cc1cc(C)nc(Sc2ccc([N+](=O)[O-])cc2[N+](=O)[O-])n1	inconclusive [cytotoxic, partial curve]	
Cc1ccc(Oc2ccc(S(=O)(=O)N3CCOCC3)cc2C(N)=O)c(-n2nc3ccccc3n2)c1	inconclusive [cytotoxic, full curve]	
CCC(C)c1ccc(NC(=O)Nc2cnccn2)cc1 (configuration not stated)	inconclusive [cytotoxic, partial curve]	
CCCCCCCCN1C(=O)[C@H](CC(=O)N2CCSCC2)C[C@@]2(C(=O)OC)CC(C)(C)CC=C12	inconclusive [cytotoxic, single point]	
CN1CCN(C(c2cccc(C(F)(F)F)c2)c2nnnn2Cc2ccccc2)CC1 (configuration not stated)	inconclusive [cytotoxic, single point]	
Cc1ccc(C(=O)n2c3ccccc3c3ccccc32)cc1		inconclusive: -48.2%
COc1cc(/C=N/O)cc(Br)c1OCc1ccc(Cl)cc1	inconclusive [cytotoxic, single point]	
O=C(Nc1ccccc1)OC[C@@H]1C=CS(=O)(=O)N1Cc1ccc(Br)cc1	inconclusive [cytotoxic, single point]	
CC1CCC(=O)N(CCOc2ccccc2)CC1 (configuration not stated)	inactive	
CCCNC(=O)C1(C)CCCN(Cc2ccc(-c3ccccc3)cc2)C1 (configuration not stated)	inconclusive [cytotoxic, single point]	
O=S(=O)(c1ccc(Br)cc1)c1cnc2ccccc2n1	inconclusive [cytotoxic, single point]	
Cc1ccc(NC2=NC3(CCCC3)N=C(N)N2)c(C)c1	active: 18.4 µM	
CCN(CC)CC(=O)Nc1ccc(-c2ccc(NC(=O)CN(CC)CC)c(OC)c2)cc1OC	inconclusive [cytotoxic, single point]	
O=C(Nc1cccc(S(=O)(=O)N2CCCCCC2)c1)C1CCN(C(=O)c2ccc(Cl)cc2)CC1	inconclusive [cytotoxic, partial curve]	
COc1ccc(C2C(C(=O)NCc3ccccn3)CCC(=O)N2c2cc(OC)c(OC)c(OC)c2)cc1 (configuration not stated)	inconclusive [rising, single point]	
O=C(NCc1cccnc1)c1cc(C2CCCN(C(=O)CCCc3ccccc3)C2)on1 (configuration not stated)	inconclusive [rising, full curve, poor fit]	
CN1CCN(CCCNC(=O)c2cc3c(-c4ccc(Cl)cc4)nn(C)c3s2)CC1	inconclusive [cytotoxic, single point]	

SMILES	Potency	activity, negative = less viability
CCOC(=O)Cc1csc(NC(=O)Nc2ccc(C)cc2)n1	active: 7.31 µM	
COc1ccc(/C=C/C(=O)c2ccccn2)cc1	inconclusive [cytotoxic, single point]	
CCCCN(CC)Cc1ccc(CNC(=O)Nc2ccc(Cl)cc2)o1	inconclusive [cytotoxic, partial curve, poor fit]	
COc1ccc(N2CCN(CCC(=O)c3ccc4ccccc4c3)CC2)cc1	inconclusive [cytotoxic, single point]	
CCCNC(=O)c1ccccc1NC(=O)c1ccc2c(=O)n3c(nc2c1)CCC3	inconclusive [cytotoxic, partial curve, poor fit]	
Cc1cnn(-c2nc(-c3ccccc3)cc(-c3ccccc3)n2)c1	inconclusive [cytotoxic, single point]	
Cc1cc(NC(=O)Nc2ccc(C)c(C)c2)no1	active: 29.1 µM	
CC1(C(=O)NS(=O)(=O)c2ccccc2)CCN1C(=O)c1cccc2ccccc12 (configuration not stated)		inconclusive: 15.1%
COc1ccc(C(=O)COC(=O)c2ccc(N(C)C)cc2)cc1	inactive	
Cc1cccn2c(=O)c3cc(C(=O)NCc4ccco4)c(=N)n(C4CCCC4)c3nc12	inactive	
COc1ccc(OC)c(NS(=O)(=O)c2ccc(Cl)s2)c1	inconclusive [cytotoxic, single point]	
CC(C)(C)C(=O)NCc1ccc(C(=O)CSc2nnc(-c3ccncc3)n2C2CC2)s1	inactive	
O=C(Oc1c(CN2CCOCC2)cc(Cl)c2cccnc12)c1ccccc1Cl	inconclusive [cytotoxic, single point]	
CCCNC(=O)C(Cc1cccc(OC)c1)NC(=O)c1ccc(C#N)cc1 (configuration not stated)	inconclusive [rising, partial curve]	
CCc1ccc(CCC(=O)Nc2ccccc2C(=O)O)o1	inconclusive [cytotoxic, single point]	
Cc1nc2ncnn2c(N2CCN(c3cccc(C(F)(F)F)c3)CC2)c1C	inconclusive [cytotoxic, single point]	
S=c1[nH]nc(COc2ccccc2)n1/N=C/C(Cl)=C/c1ccccc1	inconclusive [cytotoxic, single point]	
CCOC(=O)Cc1c(C)nc2c(-c3ccc(OC)cc3)c(C)nn2c1C	inconclusive [cytotoxic, partial curve]	
CC1(C(=O)Nc2ccc3c(c2)OCCO3)CN(S(C)(=O)=O)CC(=O)N1Cc1cccs1 (configuration not stated)		inconclusive: 2.36%
CC(C)c1ccc(C(=O)Nc2ccc(N3CCOCC3)cc2)cc1	inconclusive [cytotoxic, partial curve]	
CN(C)CCn1c(NC(=O)c2ccc(Cl)cc2)nc2ccccc21	inconclusive [cytotoxic, single point]	
